The other results are listed elsewhere or left out. At the low end of the ranking the order means little.

This experiment deals with T1, GST-Rok (full length) (UniProt O34857).
T1 sequence: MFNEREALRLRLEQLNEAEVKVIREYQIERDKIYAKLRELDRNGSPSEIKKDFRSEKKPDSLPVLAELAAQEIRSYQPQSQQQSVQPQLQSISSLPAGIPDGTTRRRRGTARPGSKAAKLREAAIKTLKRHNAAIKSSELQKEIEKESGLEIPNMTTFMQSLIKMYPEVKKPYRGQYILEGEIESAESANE
The experiment is described as follows: protein binding microarray.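 Note: rank score from −0.5 (least bound) to 0.5 (best bound).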 The note with it: Rok is a gene silencer of Bacillus subtilis; high values mean tight binding; most listed sequences are background and not binding sites; double strand, one strand shown.
Sequence ATACGTGA returned a binding signal of 0.134 E-score. With CATTGCGG the figure was -0.227 E-score. The value for TCAGACCA was -0.311 E-score; that for AATGTGAG was 0.00555 E-score.

As to AAAAAGAC, the binding signal is -0.196 E-score.

Consider CCTCCGTA, for which the binding signal was -0.309 E-score. The value for TAGGGGGA was -0.225 E-score; that for CTATGTCA was 0.225 E-score; that for ATACCCTG was 0.0324 E-score. With CGATCACG the figure was -0.0922 E-score; with ACTTATTA, 0.239 E-score; with AGACATTA, 0.127 E-score. With AGGAGCTA the figure was 0.0934 E-score; with AACCAGAA, -0.0993 E-score. Sequence GACAGCTC displayed a binding signal of -0.321 E-score. ATAGAGAC displayed a binding signal of 0.16 E-score. The sequence CTCTAGCA registered a binding signal of -0.115 E-score. As for AGGAGCGA, the binding signal was -0.288 E-score. As for ACTCGCGG, the binding signal is -0.241 E-score. The value for GCGTCGTA was 0.0795 E-score. The value for CCTTGCAA was -0.192 E-score.

As to GCCATTAA, the binding signal was -0.0498 E-score. With CGCTATGA the figure was -0.00636 E-score; with TAATCCAA, 0.0614 E-score; with ACATACGC, 0.0615 E-score. The value for CGAATGCC was -0.0357 E-score; that for TCGGGGCA was -0.161 E-score; that for GCATGGCA was -0.358 E-score. The value for TTAACTAA was 0.0239 E-score; that for ACGTTTTA was 0.0828 E-score.

CCCCACGC returned a binding signal of -0.316 E-score.

The sequence ACACGGTA yielded a binding signal of 0.123 E-score.

As to GCACCACC, the binding signal was -0.125 E-score. The value for GTATATCA was 0.208 E-score; that for AAGGATGC was -0.0733 E-score. The value for GAACCAGC was -0.148 E-score.

On to GTTGTTAA, for which the binding signal was found to be 0.124 E-score.

As to GTTACAAA, the binding signal was found to be 0.098 E-score. With AAATACCA the figure was 0.294 E-score; with TAAAATCA, 0.142 E-score; with CCCCGCGC, -0.338 E-score. The value for CATTCAGG was -0.0934 E-score. The value for GCATCTAA was 0.115 E-score; that for ATCGTATC was 0.205 E-score. AAAGCAGC: the binding signal was -0.0291 E-score. Regarding CAAAGAGG, the binding signal is -0.12 E-score.

Turning to AGCACCTG, the binding signal is -0.217 E-score.

In turn, CCTCATCA came in with a binding signal of -0.214 E-score. With CAGTAGTA the figure was 0.343 E-score; with CCATACCG, -0.134 E-score; with GTGCCCTA, -0.292 E-score. With TATGTCCA the figure was 0.22 E-score; with ATGGACGC, 0.0454 E-score; with AGGTAACA, -0.0294 E-score.

For the sequence CCATGAAA, the binding signal is -0.202 E-score. With ACGGCCGA the figure was -0.0071 E-score; with GACTCTAA, -0.12 E-score; with GTACCCTA, -0.0864 E-score. With CGGACACC, the binding signal was -0.255 E-score.

As for ATCACCAA, the binding signal was 0.0503 E-score. The value for CAAATGTG was 0.0642 E-score; that for GATTTAAA was 0.147 E-score. The value for GGTTCAAA was -0.000705 E-score. With GGGGACAA the figure was -0.336 E-score; with CCACCCCC, -0.382 E-score; with AGCCACCT, -0.167 E-score. Sequence GCTCGACA yielded a binding signal of -0.325 E-score. In turn, CTTCCCAC registered a binding signal of -0.188 E-score. The value for GCTCGGAA was -0.175 E-score. As to ACCTCCCG, the binding signal was -0.124 E-score. With CGCACGAG the figure was -0.303 E-score; with CGAACTAG, 0.319 E-score; with CTTCAGTC, -0.0906 E-score. In turn, AGGCAACC returned a binding signal of 0.0559 E-score. The sequence AAAACCGG came in with a binding signal of -0.126 E-score. The value for ATTATACG was 0.381 E-score; that for CGCGTGTA was 0.187 E-score; that for CTTCCTTA was -0.172 E-score. With GAGGGACC the figure was -0.252 E-score. With ACGAGAAC the figure was -0.0723 E-score; with AAGTAGAG, 0.104 E-score. GTTATCCA came in with a binding signal of 0.0676 E-score. With CCCAATTC the figure was -0.167 E-score; with CTGTAGTA, 0.243 E-score; with ATGCCTAA, 0.0616 E-score. The value for ACACGGTG was -0.0829 E-score; that for ATTTGCTG was -0.00949 E-score. The value for TATTTGAA was 0.101 E-score. In turn, ACCCTGTG returned a binding signal of -0.217 E-score. On to ACCGCTGA, for which the binding signal is -0.181 E-score.

Consider ACCTTCTA, for which the binding signal was determined as 0.21 E-score. On to TCAGGCGA, for which the binding signal was -0.137 E-score.

In the case of CGAGAATA, the binding signal amounted to 0.206 E-score. The value for CACCTGAA was -0.184 E-score; that for AACACCTT was -0.0359 E-score; that for ATGATAGA was 0.342 E-score.

Sequence TATCGTGA yielded a binding signal of 0.201 E-score.

Turning to ACACGTTG, the binding signal was -0.157 E-score. With GAAAATCA the figure was 0.103 E-score. CGAGTCAC returned a binding signal of -0.287 E-score. The value for GATTCTTA was 0.114 E-score. The sequence CGAGCCAA showed a binding signal of -0.12 E-score.

In turn, ACACGATC displayed a binding signal of 0.0482 E-score. ATAGGGTC came in with a binding signal of 0.103 E-score. The value for AACTAATC was 0.158 E-score; that for AGCAAGTG was -0.0153 E-score. The value for CTTATCAC was 0.118 E-score.

For ACATTGAG, the binding signal is 0.112 E-score. The value for ATCTGAAA was -0.0558 E-score. With CCGCTTCA the figure was -0.202 E-score; with CCCCTTCC, -0.434 E-score. With ATATTTAC the figure was 0.379 E-score.

GTATAGCA had a binding signal of 0.113 E-score. For CTAAGCAA, the binding signal came out at 0.0945 E-score. For the sequence ACCCGGGT, the binding signal was -0.28 E-score.

Take ACTTCTAA: the binding signal was found to be 0.185 E-score. The value for AAAAATAG was 0.204 E-score; that for CAACATGG was -0.11 E-score. The sequence TTGTAAAA displayed a binding signal of 0.266 E-score. For TCCTGCAA, the binding signal was -0.0995 E-score. The value for GCGCGAAA was 0.00527 E-score; that for CTTCGGGC was -0.239 E-score. Take GCCAGTCC: the binding signal is -0.273 E-score. With AACATCAA the figure was 0.0614 E-score; with AGACTACA, 0.0935 E-score; with CGCGCCGA, -0.237 E-score. The value for ACACGAGT was -0.137 E-score. The value for GAATAGCC was -0.186 E-score.

For TGGCGGAA, the binding signal was -0.221 E-score.

In turn, CAGGTGAC had a binding signal of -0.146 E-score. The value for CCCAACCC was -0.172 E-score. Sequence CCTCACTA had a binding signal of 0.0478 E-score.

For TCTGAGCA, the binding signal was -0.322 E-score. With AGACGAGC the figure was -0.255 E-score. As for AAAATAGA, the binding signal worked out at 0.325 E-score. With TCCGGTCA the figure was -0.148 E-score.

AGGTAACC showed a binding signal of -0.0171 E-score. As for AAAAGATT, the binding signal was 0.133 E-score.

On to AGACCACT, for which the binding signal was -0.0923 E-score. With ATTCAGGG the figure was -0.205 E-score; with CCCCAGCA, -0.373 E-score. The value for CAACTAGG was 0.234 E-score; that for CCACTTAC was 0.0783 E-score.

CTACTAAG had a binding signal of 0.124 E-score.

Regarding GAATCTGC, the binding signal is -0.0377 E-score.

The sequence ACCTTTTG gave a binding signal of 0.117 E-score. The value for TAACGAGA was 0.0744 E-score; that for AACCGTCA was -0.058 E-score. With TCCTGAAA the figure was -0.247 E-score; with CTCCAAAA, 0.0113 E-score; with ACGGATGG, -0.248 E-score. The value for ACTTCTCA was 0.161 E-score; that for CGAGTACA was -0.00996 E-score. Sequence GTCTTCAC yielded a binding signal of -0.121 E-score. The value for CGGGCTGA was -0.123 E-score. The value for ACGTTTGA was -0.048 E-score. The value for CGGTCTCC was -0.313 E-score; that for AAACACCA was -0.116 E-score.

On to AGGATGCG, for which the binding signal is -0.0785 E-score. The value for GTTCGGGA was -0.107 E-score. With ACTCTGCA the figure was -0.241 E-score.

Sequence TACGATAA yielded a binding signal of 0.292 E-score. AAGCAAAC had a binding signal of 0.156 E-score. With GATTGACA the figure was 0.0214 E-score; with CCCGACGG, -0.219 E-score; with AGGTAATA, 0.319 E-score. With ATTTGATA the figure was 0.209 E-score; with CCCAGACA, -0.325 E-score; with AACCCACC, -0.246 E-score. The value for ACCGCCGC was -0.152 E-score; that for CCGGATAC was -0.132 E-score; that for GGCGGAAC was -0.291 E-score. Sequence AGGGGCAG came in with a binding signal of -0.325 E-score. With ACGTAAGC the figure was 0.00598 E-score; with CCGTCTCA, -0.246 E-score; with GATGTGGA, -0.0326 E-score. As for TGCCTACA, the binding signal is -0.045 E-score.

ACAATTTC came in with a binding signal of 0.145 E-score. With AGCTCTAC the figure was -0.0117 E-score; with CGTTTGTC, -0.0759 E-score; with AGCTGATC, 0.145 E-score. With CGTGTCAA the figure was -0.293 E-score. With TGAGGGCA the figure was -0.401 E-score; with CTTAGCTA, 0.145 E-score; with ACTGGCGC, -0.131 E-score. Consider GGCCAGCC, for which the binding signal is -0.443 E-score. Sequence ATATCGCG yielded a binding signal of 0.274 E-score. The value for ACTGCCAT was -0.0629 E-score. In the case of CAATAAAA, the binding signal worked out at 0.172 E-score. The value for ACAGCCGG was -0.277 E-score; that for ATTTGCTA was 0.207 E-score; that for CACGCACC was -0.211 E-score.

Take ATTATGGG: the binding signal turned out to be 0.0961 E-score. With AATTAAAA the figure was 0.24 E-score; with TGCCTCAA, -0.0324 E-score; with GCGTAGCA, -0.308 E-score. The value for CGGTACAC was 0.0822 E-score; that for TTGTACAA was 0.387 E-score. With CCACATGA the figure was 0.0193 E-score. Turning to GCCGTATA, the binding signal was -0.119 E-score. The value for AGCGTTAT was 0.0581 E-score; that for GCATGTTA was 0.0472 E-score. The value for CACATCAC was -0.0151 E-score. With CGCATAAG the figure was 0.0614 E-score. With CCTTTGAG, the binding signal is -0.367 E-score. With GCGAAGGA the figure was -0.241 E-score. With AGTAGACG the figure was 0.00568 E-score; with ATAAGGCA, 0.114 E-score; with GTTCAAAC, -0.0663 E-score.

In turn, CGTTACGC registered a binding signal of -0.0534 E-score. The value for TAATGTAA was 0.334 E-score; that for GACGGTAA was 0.156 E-score. The value for GTGCCACA was -0.216 E-score; that for CATCTAAA was 0.0555 E-score; that for CTAAAAAC was 0.082 E-score.

Sequence CGTTAGTC gave a binding signal of 0.0567 E-score. The value for CCAAACTC was -0.0373 E-score. With AGCTCGGG the figure was -0.281 E-score; with GAGACGGA, -0.116 E-score.

The record behind these values is publication PMC6212790.
